First the molecules themselves.
B1: LINE1-full (parent)
chain: UACGUAGGUGGUUUUCCCCUGAUAGUGCUAAGGGGGCCUGGAAGUUUGGACUGGGCAGAGCUCAACACAGCGUGGCAAAGUGGCUGUGGCUAGACUGCCUCUCUGGAUUCCUCGUCACUCAGCAGGGCAUCUCUGAGAGAAAUGCC

Read counts are not given, so values of variants with three or more changes are uncertain.

The variants in this data set derive from B1. Nature of the data set: self-cleavage, relative activity (ratio to wild type); higher = more cleavage; in vitro, sequencing; the parent is a self-cleaving ribozyme.
As for U14C G21U U46C A79U U87A, the self-cleavage came to 0.06.

For U14C U47C U87A, the self-cleavage amounted to 0.17.

With U14C U47C U87C, the self-cleavage was 0.8.

Consider U14C C71U G106U, for which the self-cleavage amounted to 0.19.

In the case of U14A U96C U134A, the self-cleavage stood at 0.

With U14C U23C A30U A65G, the self-cleavage was 0.21.

For the variant U14C U46C U62C, the self-cleavage was found to be 0.13.

As to U14C U29C C51U C98U U134C, the self-cleavage was determined as 0.47.

For the variant U14C A50U A64G A77G, the self-cleavage was found to be 0.27.

Regarding U14C A64G A121G, the self-cleavage worked out at 0.35.

For the variant U14C U15A U115C A136G, the self-cleavage worked out at 1.35.

With U14C U45C U46C, the self-cleavage was determined as 1.4.

With U14C U39C A136G, the self-cleavage amounted to 1.67.

For U14C A65G U130C, the self-cleavage is 0.15.

For U14C A57G U109C A124U A142G, the self-cleavage was found to be 0.21.

U14C A43G U134G: the self-cleavage is 1.65.

Regarding U14C A65G A129G, the self-cleavage came out at 0.17.

Consider U14C A22G U96C, for which the self-cleavage was 0.

Regarding U14C C19U C63U U104C, the self-cleavage was determined as 0.79.

For the variant U14C G32A A69U A77G A121G, the self-cleavage is 0.24.

Consider U14C A59G U96A U104A, for which the self-cleavage stood at 0.13.

With U14C G27A U46C A140G, the self-cleavage amounted to 0.8.

Consider U14C U29C A43G G88A U134C A140G, for which the self-cleavage worked out at 0.04.

Regarding U14C U23C U81G A136G, the self-cleavage was 2.87.

Turning to U14C A64U U91C, the self-cleavage was 0.12.

On to U14C U46A A92G A94G, for which the self-cleavage is 0.11.

Consider U14C G44A A141G U143A, for which the self-cleavage turned out to be 0.83.

Take U14C U20A A121G A141G: the self-cleavage was found to be 0.68.

Regarding U14C U23C A64U A69U A117C A141G, the self-cleavage came to 0.24.

In the case of U14C A94G U130C, the self-cleavage amounted to 0.

With U14C A42G A69G C111U, the self-cleavage is 0.25.

Consider U14C C18A C71U, for which the self-cleavage came out at 0.86.

For the variant U14A A22U U100A, the self-cleavage is 0.92.

For the variant U14C A117G A142G, the self-cleavage stood at 2.24.

Take U14C A22U U46C U112C A117G: the self-cleavage is 2.12.

For U13G U112C A142G U143A, the self-cleavage was 0.

Take U14C U52G A136U: the self-cleavage amounted to 1.31.

As to U14C U26G A64U A69U, the self-cleavage is 0.1.

As for U14A U91C U102C, the self-cleavage was found to be 0.71.

As to U14C U29A U39C A138G, the self-cleavage turned out to be 1.72.

With U14C C84A A121G A141G, the self-cleavage was 0.

As to U14C A79G A129G, the self-cleavage was 1.9.

U14C G36U U130C C146U: the self-cleavage is 1.15.

Consider U14C A30U U39C A136G, for which the self-cleavage turned out to be 0.92.

As for U14A A50G A65G, the self-cleavage amounted to 0.08.

U14C U15C U85C: the self-cleavage was 0.

For U14C U46C U100C, the self-cleavage turned out to be 0.98.

In the case of U14C C63A U85C, the self-cleavage was 0.

With U14C G32C U47C A117G A142G, the self-cleavage is 0.54.

On to U14A C61A A142G, for which the self-cleavage amounted to 0.03.

Regarding U14C U20C U39A U130C, the self-cleavage amounted to 0.42.

For U14C A50G U100C, the self-cleavage worked out at 1.31.

On to U14A A78G U143A, for which the self-cleavage was 0.99.

Consider U14C G106C A141G, for which the self-cleavage came out at 1.35.

On to U14C A77G U85G A140G A142C, for which the self-cleavage is 0.

Turning to U14C G74A A124G U143A, the self-cleavage is 0.44.

As for U14C U47A A142G, the self-cleavage was determined as 1.16.

For U14C G54A G83A G126U, the self-cleavage amounted to 0.08.

For U14A A77G A141G, the self-cleavage was determined as 1.64.

On to U14C U47C U85C C116A, for which the self-cleavage came to 0.52.

As to U14A U73C C95U A121G, the self-cleavage worked out at 0.14.

U14C U45A A64G U96C: the self-cleavage is 0.

Regarding U14C U62G A92G G97A, the self-cleavage was 0.23.

Regarding U14C U91C A107G G126A, the self-cleavage amounted to 0.48.

As to U14C A79G C95U, the self-cleavage was determined as 0.2.

As for U14C U26C U46C U47C, the self-cleavage worked out at 0.

In the case of U14C U20C A94U, the self-cleavage is 0.49.

Turning to U14C U15C A30G U115A, the self-cleavage was 1.11.

As to U14C A22G G54A U85C, the self-cleavage worked out at 0.13.

In the case of U14A C71A G97A A136G, the self-cleavage was 0.07.

Regarding U13G U119C A141G, the self-cleavage came out at 1.36.

With U14C U47C U85C, the self-cleavage came to 0.48.

Consider U14A A69G G127A A140U, for which the self-cleavage was 0.46.

For U14C U29A U45C, the self-cleavage is 1.02.

For the variant U14C A78G U104A U109C, the self-cleavage was determined as 0.46.

On to U14C G114A C131U, for which the self-cleavage was 0.85.

As to U14C G106A A136G, the self-cleavage came to 1.37.

Take U14A U62C U112G: the self-cleavage came out at 0.

With U14A U46C G48U A50G C51A U52C G53U C76U U102C, the self-cleavage was found to be 2.08.

Consider U14C G49U U96G, for which the self-cleavage is 0.07.

As for U14C U45C A94U, the self-cleavage was 0.15.

In the case of U14C A50G C56U, the self-cleavage is 0.18.

U14C U52A U100A: the self-cleavage came to 0.76.

Turning to U14C A67G A138G, the self-cleavage was found to be 0.78.

For the variant U14A G58U G139A, the self-cleavage came to 0.06.

For the variant U14C A107G U115A U119C A142G, the self-cleavage came to 0.

As to U14C C19U A22G U26A U73C, the self-cleavage came to 0.66.

On to U14C G60A A79G A121G A140G, for which the self-cleavage amounted to 0.07.

Regarding U14C U20G A129G U134C, the self-cleavage was 1.02.

For U14C U87A U100C C111U A138G, the self-cleavage was found to be 0.11.

As for U14C G89A A94G A124G, the self-cleavage was determined as 0.13.

For U14C A57G A107G U143C, the self-cleavage was 0.38.

U14C G40A A42G C51U G114A: the self-cleavage is 1.74.

As to U14A A31G A78U A79G A141G, the self-cleavage was found to be 1.22.

Regarding U14A U39C U52C C63U, the self-cleavage turned out to be 0.01.

As for U14C U47A U109A, the self-cleavage was found to be 0.9.

On to U14C U29C A43G C99U A141G, for which the self-cleavage came out at 1.31.

In the case of U14C A31U A79G, the self-cleavage worked out at 1.81.

U14A G34U A142U: the self-cleavage was 1.2.

As for U14C A78G A136G, the self-cleavage was found to be 1.17.

U14C A92U U109A A140G: the self-cleavage amounted to 0.51.

As for U14C U47C A50U U81C, the self-cleavage was determined as 0.68.

For the variant U14C G53U U132C U143A C146U, the self-cleavage amounted to 1.65.

On to U14C U46C U104C, for which the self-cleavage turned out to be 2.63.

As to U14C U29C A121G, the self-cleavage is 0.77.

As for U14C U15C U52C, the self-cleavage is 1.9.

Regarding U14C A124U U134A, the self-cleavage came to 0.37.

On to U14A U15C A77U C113G A142G, for which the self-cleavage turned out to be 1.01.

On to U14C U87C C123A, for which the self-cleavage amounted to 0.31.

Take U14C G127U A142G: the self-cleavage amounted to 1.41.

On to U14A U47A A65G, for which the self-cleavage stood at 0.05.

Consider U14C A64U A67G U119C, for which the self-cleavage is 0.15.

As for U14A A22U G88A A117G, the self-cleavage worked out at 0.13.

U14C A69G U134A U143C: the self-cleavage stood at 0.

With U14C C76U A94U, the self-cleavage amounted to 0.4.

With U14A A57G A69U, the self-cleavage came to 0.04.

For U14C U45G A142G, the self-cleavage came out at 1.31.

On to U14C U87A A121G, for which the self-cleavage came out at 0.22.

Regarding U14C A64U A69G U109C A117U, the self-cleavage came to 0.08.

Take U14A U96A C118U: the self-cleavage worked out at 0.05.

In the case of U14A U102C A141G, the self-cleavage amounted to 0.89.

As for U14C A117U U130C, the self-cleavage worked out at 0.95.

Take U14C C123U U132A: the self-cleavage came out at 1.22.

For U14C U26G G27C U62G C84G A121U A140G, the self-cleavage amounted to 0.

As to U14C U46C A65U U87A, the self-cleavage worked out at 0.05.

Turning to U14C A43G G97A A124C, the self-cleavage was determined as 0.09.

Turning to U14C U20A G54A U96A, the self-cleavage came out at 0.08.

With U14A A77U U112A, the self-cleavage came to 0.71.

Consider U14C U46C A64G U87C A140G, for which the self-cleavage stood at 0.

Consider U14C A42G G105A, for which the self-cleavage came to 1.68.

As to U14C G93A C101A, the self-cleavage was found to be 0.06.

In the case of U14C U15A A57U, the self-cleavage worked out at 0.

In the case of U14C A31G U39A A57U A77U U130C, the self-cleavage is 0.06.

On to U14C G33U A50G C51A U100C A129C, for which the self-cleavage turned out to be 1.41.

Consider U14C U26G C71A U115C, for which the self-cleavage turned out to be 0.24.

Turning to U14C A57G G97A U119C A121C, the self-cleavage was 0.13.

As for U14C U73A G122U, the self-cleavage stood at 1.03.

As to U14C C37U U46C G58A, the self-cleavage came out at 0.08.

For U14C A78G A92G, the self-cleavage amounted to 0.29.

On to U14C A30C A59U, for which the self-cleavage worked out at 0.44.

U14C A30G A77G U100C: the self-cleavage was determined as 1.53.

Turning to U14C U100C A117G, the self-cleavage turned out to be 0.84.

In the case of U14C A94G U132C, the self-cleavage came out at 0.31.

Turning to U14C A24C A140G, the self-cleavage amounted to 1.31.

For the variant U14C U39A G82A C120A, the self-cleavage worked out at 1.3.

On to U14C U29G U132A, for which the self-cleavage came to 1.6.

As for U14C A30G U85A, the self-cleavage was determined as 0.27.

In the case of U14C C18A C63U, the self-cleavage was found to be 0.69.

On to U14A A42U U134A, for which the self-cleavage came out at 0.41.

Take U14C U47A U73C U100C: the self-cleavage was determined as 0.33.

In the case of U14C A67U U96C U132C, the self-cleavage was 0.

With U14C A67U A69G C99U U112C U115C, the self-cleavage stood at 0.

Turning to U14C U81A A94G U112C, the self-cleavage came to 0.42.

Consider U14C G36A U96A, for which the self-cleavage turned out to be 0.05.

U14C A50G A65U A79G U81A: the self-cleavage is 0.

As for U14C U39A A121G, the self-cleavage turned out to be 2.41.

For the variant U14C U62C C101U, the self-cleavage was found to be 0.06.

Regarding U14C A67C U132G A138G, the self-cleavage was 1.23.

On to U14C A59U U102C, for which the self-cleavage was 1.03.

As for U14C U29C A59U, the self-cleavage was 0.43.

For the variant U14C A43U U47C, the self-cleavage stood at 1.28.

Consider U14C A50G A78G, for which the self-cleavage was 0.75.

In the case of U14C A77G U96A A140G, the self-cleavage worked out at 0.14.

Turning to U14C G25C A42G A64U A65U A78G U96C C113U U115C, the self-cleavage is 0.05.

For U14C U87A A136U A142G, the self-cleavage worked out at 0.02.

Turning to U14C C19A G126A A140G, the self-cleavage came to 0.96.

Turning to U14C A43G A65G, the self-cleavage turned out to be 0.26.
